The list shows a part of the results. At the low end of the ranking the order means little.

In the assay the target is T1, GST-Rok (full length) (UniProt O34857).
T1 sequence: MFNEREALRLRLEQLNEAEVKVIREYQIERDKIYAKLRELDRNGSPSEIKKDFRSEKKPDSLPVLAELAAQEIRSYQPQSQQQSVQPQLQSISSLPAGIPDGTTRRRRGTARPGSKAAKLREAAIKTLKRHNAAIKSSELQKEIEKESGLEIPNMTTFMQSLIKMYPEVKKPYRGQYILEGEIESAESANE
In words: protein binding microarray.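 Note: rank score from −0.5 (least bound) to 0.5 (best bound).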 The following applies: Rok is a gene silencer of Bacillus subtilis; high values mean tight binding; most listed sequences are background and not binding sites; double strand, one strand shown.
The sequence TGCATACA had a binding signal of -0.0253 E-score.

On to CATCCCTA, for which the binding signal is 0.0782 E-score.

Consider CTCCATAC, for which the binding signal turned out to be 0.166 E-score.

In turn, GCGGAAGC gave a binding signal of -0.0301 E-score.

The sequence GCCCGAGC yielded a binding signal of -0.27 E-score.

Sequence TAGCCAGA came in with a binding signal of -0.215 E-score.

Consider GCAGCGAA, for which the binding signal is -0.0124 E-score.

GCGGTCGA returned a binding signal of -0.134 E-score.

Sequence GTCTTACA returned a binding signal of -0.104 E-score.

Regarding CACGTCGC, the binding signal is -0.149 E-score.

Turning to ATATTCAT, the binding signal is 0.319 E-score.

The sequence GAATCAAA had a binding signal of 0.15 E-score.

Sequence AACACGGT yielded a binding signal of -0.0677 E-score.

Sequence CGGTCGGC came in with a binding signal of -0.288 E-score.

AGTGTTCA showed a binding signal of -0.102 E-score.

Turning to GAGAGAAA, the binding signal is 0.0897 E-score.

Consider ATAAGGCC, for which the binding signal is -0.00866 E-score.

For CGGCATAC, the binding signal is -0.0136 E-score.

In turn, GACCCCCC showed a binding signal of -0.471 E-score.

Regarding AGTGATAG, the binding signal was found to be 0.377 E-score.

As to ACGCGGGA, the binding signal was -0.212 E-score.

ACGTGAAG: the binding signal worked out at 0.0636 E-score.

Regarding AACCGTGA, the binding signal was 0.0598 E-score.

AGCCAGGG yielded a binding signal of -0.218 E-score.

AGATAGAT had a binding signal of 0.386 E-score.

As to CAATTACA, the binding signal was 0.189 E-score.

With GACTTGAA, the binding signal turned out to be 0.144 E-score.

ACGACAGG gave a binding signal of -0.0817 E-score.

As for AGCTCCAT, the binding signal was 0.0419 E-score.

ATCATATG: the binding signal was 0.226 E-score.

In turn, GCTGCAGA displayed a binding signal of 0.0247 E-score.

CGATATAA: the binding signal amounted to 0.357 E-score.

TAAGATGA came in with a binding signal of 0.13 E-score.

The sequence TCTCAACA showed a binding signal of 0.123 E-score.

In turn, ACGGTCTC displayed a binding signal of -0.186 E-score.

For the sequence GCCGTACC, the binding signal is -0.204 E-score.

The sequence TAGGCGCA displayed a binding signal of -0.0478 E-score.

Take AAACAAAA: the binding signal is -0.042 E-score.

AGTACAAT registered a binding signal of 0.217 E-score.

The sequence AACGTAAT had a binding signal of 0.0894 E-score.

Regarding CGATTTGA, the binding signal is -0.0184 E-score.

The sequence GTTGGGCA displayed a binding signal of -0.0884 E-score.

Sequence CGTCTACA registered a binding signal of 0.151 E-score.

For the sequence CATTGTGA, the binding signal came out at 0.0884 E-score.

For GAGGGGGA, the binding signal was -0.355 E-score.

The sequence GAACAGTA displayed a binding signal of 0.264 E-score.

Regarding ACTGGACA, the binding signal turned out to be 0.0236 E-score.

In the case of GAACTGGA, the binding signal was -0.103 E-score.

The sequence AAAAGCGT came in with a binding signal of -0.296 E-score.

CTTTTGTC yielded a binding signal of -0.121 E-score.

Consider ATGTTCTA, for which the binding signal was found to be 0.269 E-score.

The sequence AGAATTAA returned a binding signal of 0.184 E-score.

The sequence ACAGGCCA had a binding signal of -0.114 E-score.

On to AGTTCGTA, for which the binding signal stood at 0.23 E-score.

With ATGATACA, the binding signal is 0.28 E-score.

CCCGTCGA yielded a binding signal of -0.315 E-score.

AGTGAGCG: the binding signal is -0.0932 E-score.

For GAGTTAAA, the binding signal came out at 0.12 E-score.

As for AGACCGAA, the binding signal is -0.255 E-score.

AACTGACT showed a binding signal of -0.0534 E-score.

TCTCCGAA had a binding signal of 0.0924 E-score.

Regarding CAGTTATC, the binding signal stood at 0.139 E-score.

Take ACCGGGAC: the binding signal is -0.156 E-score.

AAACGAGC gave a binding signal of -0.22 E-score.

As to CGTCTTAC, the binding signal is -0.209 E-score.

AATCGACC showed a binding signal of 0.155 E-score.

Consider AGGGTGGC, for which the binding signal is -0.384 E-score.

CCTGTAGA: the binding signal is 0.0279 E-score.

AGGGTATA: the binding signal was 0.0982 E-score.

The sequence ACGTTTTC yielded a binding signal of 0.19 E-score.

CGTGTCAC yielded a binding signal of 0.0368 E-score.

Turning to ACTACCTG, the binding signal was determined as 0.222 E-score.

Take AGCCGATG: the binding signal is -0.0522 E-score.

The sequence AGGTTAGG came in with a binding signal of -0.108 E-score.

Regarding GTCGGGAA, the binding signal is -0.326 E-score.

The sequence CAACACAG displayed a binding signal of -0.0484 E-score.

CCTAGACC showed a binding signal of -0.289 E-score.

On to AACGATAT, for which the binding signal worked out at 0.272 E-score.

In the case of CTTACTTC, the binding signal worked out at 0.06 E-score.

On to AGGGTGCA, for which the binding signal was -0.131 E-score.

Sequence ACTCAGCC registered a binding signal of -0.076 E-score.

On to ACCCGTCA, for which the binding signal was -0.275 E-score.

In turn, CAAGATCA came in with a binding signal of 0.0932 E-score.

Sequence AGCTGCGC registered a binding signal of -0.217 E-score.

As for TCTTGTCA, the binding signal is -0.133 E-score.

CCGTATCA displayed a binding signal of -0.0296 E-score.

For AACATGGC, the binding signal was -0.112 E-score.

For the sequence CAGGCTGG, the binding signal was -0.14 E-score.

In turn, AATGAATA had a binding signal of 0.174 E-score.

Regarding CCTGAAAA, the binding signal was -0.19 E-score.

With GCGATGGA, the binding signal turned out to be 0.0109 E-score.

The sequence AAGAATCA had a binding signal of 0.133 E-score.

AAAGACCT registered a binding signal of -0.067 E-score.

In the case of CTCAGGGA, the binding signal is -0.16 E-score.

In turn, CTCCACAC came in with a binding signal of 0.0329 E-score.

ATGGGGTA: the binding signal is -0.0198 E-score.

Sequence CGTCGAGA had a binding signal of -0.0959 E-score.

CCAGGACC displayed a binding signal of -0.246 E-score.

GTCCCTTA registered a binding signal of -0.163 E-score.

With ATATACAG, the binding signal was found to be 0.282 E-score.

Sequence CTGCATGC had a binding signal of -0.13 E-score.

On to ACCGTTCC, for which the binding signal is -0.00401 E-score.

GCGGGCGA gave a binding signal of -0.388 E-score.

In turn, CATTCATC registered a binding signal of 0.0485 E-score.

In turn, GTGGGGGA showed a binding signal of -0.325 E-score.

In the case of GCCTATAC, the binding signal was 0.135 E-score.

The sequence TATGGAAA gave a binding signal of 0.119 E-score.

Regarding CCGACCTA, the binding signal worked out at 0.0265 E-score.

In the case of AGGGTTGA, the binding signal was -0.227 E-score.

GAGTCCCA: the binding signal is -0.212 E-score.

(Values after paper PMC6212790.)
